Assay results reported in article PMC4450067 (PLoS Pathogens, 2015).

System: stress granules in BHK cells
Format: cell-based

## O=[As][O-].[Na+] [sodium arsenite]
  cells with SGs upon sodium arsenite: Approximately 97%
